Biological target: T1, biotinylated truncated STAT6 (123-632)-avi (Homo sapiens, UniProt P42226)
T1 sequence (P42226 123-632 limits assumed): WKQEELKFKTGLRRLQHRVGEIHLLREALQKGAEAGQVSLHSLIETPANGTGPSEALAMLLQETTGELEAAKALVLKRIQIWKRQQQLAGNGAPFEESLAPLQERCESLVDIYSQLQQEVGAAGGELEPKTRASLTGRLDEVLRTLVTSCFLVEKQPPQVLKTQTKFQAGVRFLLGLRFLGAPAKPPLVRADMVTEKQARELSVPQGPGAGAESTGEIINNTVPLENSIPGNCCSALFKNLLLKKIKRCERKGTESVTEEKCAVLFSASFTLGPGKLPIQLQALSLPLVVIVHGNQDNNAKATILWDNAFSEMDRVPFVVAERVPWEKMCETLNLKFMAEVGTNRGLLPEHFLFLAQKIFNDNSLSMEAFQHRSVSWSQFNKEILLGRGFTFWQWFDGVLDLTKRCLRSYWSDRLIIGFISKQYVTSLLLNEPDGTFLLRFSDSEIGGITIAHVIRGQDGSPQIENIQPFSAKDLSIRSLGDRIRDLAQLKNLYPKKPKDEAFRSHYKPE
Test: Homogenous Time-Resolved Fluorescence (HTRF) binding assay
Settings: 0.15 nM biotinylated truncated STAT6 (123-632)-avi, 20 nM fluorescein-labeled probe, 30 minutes at room temperature

`CCc1ccncc1-c1cc(C2=CCCN(C(=O)CCn3ccnn3)C2)c(F)c2[nH]c(C(=O)N3CCN(c4ncc(Cl)cc4OC)CC3)cc12` [Example I-472] and `CCc1ccncc1-c1cc(C2=CCCN(C(=O)CCn3ccnn3)C2)c(F)c2[nH]c(C(=O)N3CCN(c4ncc(F)cc4OC)CC3)cc12` [Example I-476] cannot be ordered by IC50: less than 100 nM for the first, less than 100 nM for the second.

`CCc1ccncc1-c1cc(C2=CCCN(C(=O)CCn3ccnn3)C2)c(F)c2[nH]c(C(=O)N3CCN(C4CC4)CC3)cc12` [Example I-473] and `CCc1ccncc1-c1cc(C2=CCCN(C(=O)CCn3ccnn3)C2)c(F)c2[nH]c(C(=O)N3CCN(c4ncccc4OC4CC4)CC3)cc12` [Example I-479] cannot be ordered by IC50: less than 100 nM for the first, less than 100 nM for the second.

`COc1ccncc1-c1cc(C2=CCCN(C(=O)CCn3ccnn3)C2)c(F)c2[nH]c(C(=O)N3CCN(c4ccc(C#N)cc4OC)CC3)cc12` [Example I-474] and `COc1ccncc1-c1cc(C2=CCCN(C(=O)CCn3ccnn3)C2)c(F)c2[nH]c(C(=O)N3CCN(c4ccc(F)cc4OC)CC3)cc12` [Example I-482] cannot be ordered by IC50: less than 100 nM for the first, less than 100 nM for the second.

Going from `O=C(CCn1ccnn1)N1CCC=C(c2cc(-c3ccccc3OC3CC3)c3cc(C(=O)N4CCN(c5ncccc5OC5CC5)CC4)[nH]c3c2F)C1` [Example I-477] to `COc1ccccc1-c1cc(C2=CCCN(C(=O)CCn3ccnn3)C2)c(F)c2[nH]c(C(=O)N3CCN(c4ncccc4C4CC4)CC3)cc12` [Example I-495], the IC50 rises from less than 100 nM to greater than 100000 nM. The first is the more potent here.

`CCOc1ccncc1-c1cc(C2=CCCN(C(=O)CCn3ccnn3)C2)c(F)c2[nH]c(C(=O)N3CCN(c4nccnc4OC)CC3)cc12` [Example I-478] and `CCc1cc(C)ncc1-c1cc(C2=CCCN(C(=O)CCn3ccnn3)C2)c(F)c2[nH]c(C(=O)N3CCN(c4nccnc4OC)CC3)cc12` [Example I-519] cannot be ordered by IC50: less than 100 nM for the first, less than 100 nM for the second.

First: CCc1ccncc1-c1cc(C2=CCCN(C(=O)CCn3ccnn3)C2)c(F)c2[nH]c(C(=O)N3CCN(c4cccc(OC)n4)CC3)cc12 [Example I-480]
Second: CCc1cnccc1-c1cc(C2=CCCN(C(=O)CCn3ccnn3)C2)c(F)c2[nH]c(C(=O)N3CCN(c4ncc(OC)cc4OC)CC3)cc12 [Example I-484]
The IC50 of the first is lower: less than 100 nM for the first, greater than 100000 nM for the second. The first is the more potent here.

Compared with `COc1ccncc1-c1cc(C2=CCCN(C(=O)CCn3ccnn3)C2)c(F)c2[nH]c(C(=O)N3CCN(c4ccc(C5CC5)cc4OC)CC3)cc12` [Example I-481], `COc1ccncc1-c1cc(C2=CCCN(C(=O)CCn3ccnn3)C2)c(F)c2[nH]c(C(=O)N3CCN(c4ccc(F)c(OC)c4F)CC3)cc12` [Example I-492] is higher in IC50: less than 100 nM for the first, greater than 100000 nM for the second.

Going from `COc1ccncc1-c1cc(C2=CCCN(C(=O)CCn3ccnn3)C2)c(F)c2[nH]c(C(=O)N3CCN(c4cc5cc[nH]c5nc4C#N)CC3)cc12` [Example I-485] to `COc1ccncc1-c1cc(C2=CCCN(C(=O)CCn3ccnn3)C2)c(F)c2[nH]c(C(=O)N3CCN(c4cccnc4C#N)CC3)cc12` [Example I-493], the IC50 rises from less than 100 nM to greater than 100000 nM.

`CCOc1ccncc1-c1cc(C2=CCCN(C(=O)CCn3cccn3)C2)c(F)c2[nH]c(C(=O)N3CCN(c4cncnc4OC)CC3)cc12` [Example I-486] and `CCc1cc(C)ncc1-c1cc(C2=CCCN(C(=O)CCn3cccn3)C2)c(F)c2[nH]c(C(=O)N3CCN(c4cc(C)ccc4OC)CC3)cc12` [Example I-515] cannot be ordered by IC50: less than 100 nM for the first, less than 100 nM for the second.

First: COc1ccccc1-c1cc(C2=CCCN(C(=O)CCn3ccnn3)C2)c(F)c2[nH]c(C(=O)N3CCN(c4nc(OC(F)F)ccc4OC)CC3)cc12 [Example I-490]
Second: COc1ccccc1-c1cc(C2=CCCN(C(=O)CCn3ccnn3)C2)c(F)c2[nH]c(C(=O)N3CCN(c4[nH]ncc4OC)CC3)cc12 [Example I-508]
The IC50 of the first is higher: greater than 100000 nM for the first, less than 100 nM for the second. The second is the more potent here.

`COc1ccncc1-c1cc(C2=CCCN(C(=O)CCn3ccnn3)C2)c(F)c2[nH]c(C(=O)N3CCN(c4nc(Cl)ccc4OC)CC3)cc12` [Example I-491] and `COc1ccncc1-c1cc(C2=CCCN(C(=O)CCn3ccnn3)C2)c(F)c2[nH]c(C(=O)N3CCN(c4nc(C)c(F)cc4OC)CC3)cc12` [Example I-500] cannot be ordered by IC50: greater than 100000 nM for the first, greater than 100000 nM for the second.

First: COc1ccccc1-c1cc(C2=CCCN(C(=O)CCn3cccn3)C2)c(F)c2[nH]c(C(=O)N3CCN(c4cc5cc[nH]c5nc4C#N)CC3)cc12 [Example I-494]
Second: COc1ccccc1-c1cc(C2=CCCN(C(=O)CCn3cccn3)C2)c(F)c2[nH]c(C(=O)N3Cc4cnn(C)c4C3)cc12 [Example I-503]
The IC50 of the first is higher: greater than 100000 nM for the first, 10000 to 100000 nM for the second. The second is the more potent here.

First: COc1ccncc1-c1cc(C2=CCCN(C(=O)CCn3ccnn3)C2)c(F)c2[nH]c(C(=O)N3Cc4cnn(C)c4C3)cc12 [Example I-496]
Second: COc1cnccc1-c1cc(C2=CCCN(C(=O)CCn3ccnn3)C2)c(F)c2[nH]c(C(=O)N3Cc4cnn(C)c4C3)cc12 [Example I-502]
The IC50 of the first is higher: greater than 100000 nM for the first, 10000 to 100000 nM for the second.

Compared with `COc1ccncc1-c1cc(C2=CCCN(C(=O)CCc3nccs3)C2)c(F)c2[nH]c(C(=O)N3CCN(c4ncccc4OC)CC3)cc12` [Example I-497], `CCc1cc(C)ncc1-c1cc(C2=CCCN(C(=O)CCc3nccs3)C2)c(F)c2[nH]c(C(=O)N3CCN(c4nc(C)ccc4OC)CC3)cc12` [Example I-526] is lower in IC50: 10000 to 100000 nM for the first, less than 100 nM for the second. The second is the more potent here.

Compared with `COc1cc(F)cnc1N1CCN(C(=O)c2cc3c(Cl)cc(C4=CCCN(C(=O)CCn5ccnn5)C4)c(F)c3[nH]2)CC1` [Example I-499], `COc1cc(F)cnc1N1CCN(C(=O)c2cc3c(C(F)F)cc(C4=CCCN(C(=O)CCn5ccnn5)C4)c(F)c3[nH]2)CC1` [Example I-532] is lower in IC50: 10000 to 100000 nM for the first, less than 100 nM for the second. The second is the more potent here.

First: COc1ccccc1-c1cc(C2=CCCN(C(=O)CCn3ccnn3)C2)c(F)c2[nH]c(C(=O)N3CCN(C4CC(F)(F)C4)CC3)cc12 [Example I-501]
Second: COc1ccccc1-c1cc(C2=CCCN(C(=O)CCn3ccnn3)C2)c(F)c2[nH]c(C(=O)N3CC=C(C4CC4)CC3)cc12 [Example I-511]
The IC50 of the first is higher: 10000 to 100000 nM for the first, less than 100 nM for the second. The second is the more potent here.

`CCn1cc2c(n1)CN(C(=O)c1cc3c(-c4ccccc4OC)cc(C4=CCCN(C(=O)CCn5ccnn5)C4)c(F)c3[nH]1)C2` [Example I-505] and `CCn1ncc2c1CN(C(=O)c1cc3c(-c4ccccc4OC)cc(C4=CCCN(C(=O)CCn5ccnn5)C4)c(F)c3[nH]1)C2` [Example I-507] fall in the same range of IC50: 10000 to 100000 nM for the first, 10000 to 100000 nM for the second.

Compared with `COc1ccccc1-c1cc(C(=O)N2CCN(c3ncc(F)cc3OC)CC2)cc2cc(C3=CCCN(C(=O)CCn4ccnn4)C3)n(CC3CC3)c12` [Example I-506], `COc1ccccc1-c1cc(C(=O)N2CCN(c3ncc(F)cc3OC)CC2)cc2cc(C3=CCCN(C(=O)CCn4ccnn4)C3)n(CC(C)C)c12` [Example I-521] is lower in IC50: 10000 to 100000 nM for the first, less than 100 nM for the second. The second is the more potent here.

`COc1ccccc1-c1cc(C2=CCCN(C(=O)CCn3ccnn3)C2)c(F)c2[nH]c(C(=O)N3Cc4c(C)nn(C)c4C3)cc12` [Example I-509] and `COc1ccccc1-c1cc(C2=CCCN(C(=O)CCn3ccnn3)C2)c(F)c2[nH]c(C(=O)N3CCc4cnn(C)c4C3)cc12` [Example I-516] cannot be ordered by IC50: less than 100 nM for the first, less than 100 nM for the second.

`COc1ccccc1-c1cc(C2=CCCN(C(=O)CCn3ccnn3)C2)c(F)c2[nH]c(C(=O)N3CCN(c4ncc(F)c(F)c4OC)CC3)cc12` [Example I-510] and `COc1ccccc1-c1cc(C2=CCCN(C(=O)CCn3ccnn3)C2)c(F)c2[nH]c(C(=O)N3CCc4c(cnn4C)C3)cc12` [Example I-518] cannot be ordered by IC50: less than 100 nM for the first, less than 100 nM for the second.

`COc1ccccc1-c1cc(C2CN(C(=O)CCn3ccnn3)CC(F)(F)C2)c(F)c2[nH]c(C(=O)N3Cc4cnn(C)c4C3)cc12` (stereo not shown) [Example I-512] and `COc1ccncc1-c1cc(C2CN(C(=O)CCn3ccnn3)CC(F)(F)C2)c(F)c2[nH]c(C(=O)N3CCN(c4ncc(F)cc4OC)CC3)cc12` (stereo not shown) [Example I-513] cannot be ordered by IC50: less than 100 nM for the first, less than 100 nM for the second.

`CCc1nc(C)ccc1-c1cc(C(=O)N2CCN(c3ncc(F)cc3OC)CC2)cc2cc(C3=CCCN(C(=O)CCn4ccnn4)C3)n(CC3CC3)c12` [Example I-517] and `CCc1nc(C)ccc1-c1cc(C(=O)N2CCN(c3ncc(F)cc3OC)CC2)cc2cc(C3=CCCN(C(=O)CCn4cccn4)C3)n(CC3CC3)c12` [Example I-522] cannot be ordered by IC50: less than 100 nM for the first, less than 100 nM for the second.

Compared with `CCc1nc(C)ccc1-c1cc(C(=O)N2CCN(c3ncc(F)cc3OC)CC2)cc2cc(C3=CCCN(C(=O)CCn4ccnn4)C3)n(CC(C)C)c12` [Example I-524], `CCc1nc(C)ccc1-c1cc(C(=O)N2CCN(c3ccc(F)cc3OC)CC2)cc2cc(C3=CCCN(C(=O)CCn4ccnn4)C3)n(CC3CC3)c12` [Example I-534] is higher in IC50: less than 100 nM for the first, greater than 100000 nM for the second.

`CCc1cc(C)ncc1-c1cc(C2=CCCN(C(=O)CCc3nccs3)C2)c(F)c2[nH]c(C(=O)N3CCN(c4ncc(F)cc4OC)CC3)cc12` [Example I-525] and `CCc1cc(C)ncc1-c1cc(C(=O)N2CCN(c3ncc(F)cc3OC)CC2)cc2cc(C3=CCCN(C(=O)CCn4ccnn4)C3)n(CC3CC3)c12` [Example I-533] cannot be ordered by IC50: less than 100 nM for the first, less than 100 nM for the second.

`CCc1nc(C)ccc1-c1cc(C(=O)N2CCN(c3ncc(F)cc3OC)CC2)cc2cc(C3=CCCN(C(=O)CCC(=O)O)C3)n(CC3CC3)c12` [Example I-527] and `CCn1ncc2c1CN(C(=O)c1cc(-c3ccccc3OC)c3c(c1)cc(C1=CCCN(C(=O)CCn4ccnn4)C1)n3CC1CC1)C2` [Example I-530] cannot be ordered by IC50: less than 100 nM for the first, less than 100 nM for the second.

`CCc1cc(C)ncc1-c1cc(C2=CCCN(C(=O)CCn3ccnn3)C2)c(F)c2[nH]c(C(=O)N3Cc4cnn(CC)c4C3)cc12` [Example I-529] and `CCc1cc(C)ncc1-c1cc(C2=CCCN(C(=O)CCn3ccnn3)C2)c(F)c2[nH]c(C(=O)N3Cc4cnn(C)c4C3)cc12` [Example I-531] cannot be ordered by IC50: less than 100 nM for the first, less than 100 nM for the second.

Reference: patent publication US20250214977A1, “STAT6 INHIBITORS AND USES THEREOF” (Kymera Therapeutics, Inc., priority 2024, published 2025)
